According to patent US20220267443A1 (published 2022):
Numbering of substitutions follows the chain as printed. Like-named read-outs stand apart in the source and are kept apart here.

B1: AGEN1884 (antibody)
heavy: EVQLVESGGGLVKPGGSLRLSCAASGFTFSSYSMNWVRQAPGKGLEWVSSISSSSSYIYYADSVKGRFTISRDNAKNSLYLQMNSLRAEDTAVYYCARVGLMGPFDIWGQGTMVTVSSASTKGPSVFPLAPSSKSTSGGTAALGCLVKDYFPEPVTVSWNSGALTSGVHTFPAVLQSSGLYSLSSVVTVPSSSLGTQTYICNVNHKPSNTKVDKRV[sequence of human IgG1 Fc omitted]
light: EIVLTQSPGTLSLSPGERATLSCRASQSVSRYLGWYQQKPGQAPRLLIYGASTRATGIPDRFSGSGSGTDFTLTITRLEPEDFAVYYCQQYGSSPWTFGQGTKVEIKRSVAAPSVFIFPPSDEQLKSGTASVVCLLNNFYPREAKVQWKVDNALQSGNSQESVTEQDSKDSTYSLSSTLTLSKADYEKHKVYACEVTHQGLSSPVTKSFNRGEC
B2: AGEN1884w (antibody)
heavy: B1 heavy
light: B1 light with S109T

Legend:
[1] = molecular target: T1, recombinant human CTLA-4-Fc (R&D Systems, #7268-CT) (UniProt P16410 36-161)
[2] = molecular target: Human CTLA-4 monomer; assay: SPR
[3] = molecular target: Cynomolgus CTLA-4 monomer; assay: SPR
[4] = molecular target: T1, recombinant human CTLA-4-Fc (R&D …); assay: SPR
[5] = molecular target: recombinant mouse CTLA-4-Fc (UniProt P09793 36-161); assay: SPR
[6] = molecular target: recombinant cynomolgus CTLA-4-Fc (Sino Biological, #90213-C02H) (UniProt P16410 36-161); assay: SPR
[7] = molecular target: human CTLA-4 expressed on cells (Jurkat cells over-expressing human CTLA-4); activated or PHA-stimulated … (UniProt P16410 36-223); assay: flow cytometry

Chain of UniProt P09793 (P09793 36-161): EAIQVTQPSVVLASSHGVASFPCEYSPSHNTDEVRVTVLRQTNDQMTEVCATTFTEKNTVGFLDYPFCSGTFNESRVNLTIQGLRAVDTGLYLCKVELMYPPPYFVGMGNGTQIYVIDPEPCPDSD

Binder | Kd [1] [nM] | Kd [2] [nM] | Kd [3] [nM] | Kd [4] [nM] | Kd [5] [nM] | Kd [6] [nM] | EC50 [7] [µg/mL]
B1 | 0.6 | 0.8 | 1.6 | 0.6 | 9.9 | 6.2 | –
B2 | – | – | – | – | – | – | 0.031
